Laboratory results taken from the supplement of paper PMC11880418.
Counter-ions that a name gives are not always drawn. The list shows a part of the results. The data scatter; read single values as rough.

Legend:
Assay in all cases: ALDHbr (CSC) cell proportion score relative to DMSO vehicle (ratio to DMSO); breast (SUM159) / gastric (MKN45) / pancreatic (PANC1) / colon cancer lines; ALDHbr cells have high ALDH activity and are rich in cancer stem cells (CSC); higher = more CSC (ALDHbr) cells remaining
Details in all cases: 10 µM; 72 h
MKN45 = system: MKN45
PANC1 = system: PANC1
SUM159 = system: SUM159
T84 = system: T84
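Further: High-content imaging of ALDEFLUOR-stained cells with Hoechst-labelled nuclei in 384-well plates, triplicate wells, scored as Z-score against 0.1% DMSO vehicle, negative meaning fewer ALDHbr cells.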

SMILES: C[C@H]1C[C@@H]2[C@H]([C@@H](O)C[C@@]3(C)[C@H]2CC[C@]3(O)C(=O)CO)[C@@]2(C)C=CC(=O)C=C12 [Methylprednisolone, 6-alpha]
- ALDHbr (MKN45): 0.871
- ALDHbr (PANC1): 0.507
- ALDHbr (SUM159): 1.12
- ALDHbr (T84): 0.868

SMILES: C[C@H](N[C@@H](CCc1ccccc1)C(=O)O)C(=O)N1CCC[C@H]1C(=O)O [Enalaprilat dihydrate]
- ALDHbr (MKN45): 0.973
- ALDHbr (PANC1): 1.03
- ALDHbr (SUM159): 0.85
- ALDHbr (T84): 0.971

SMILES: CC(CN1c2ccccc2Sc2ccccc21)N(C)C (configuration not stated) [Promethazine hydrochloride]
- ALDHbr (MKN45): 1.05
- ALDHbr (PANC1): 1.31
- ALDHbr (SUM159): 0.771
- ALDHbr (T84): 0.893
